For 31 sequences, binding signal results are on record in paper PMC12820563, “FoxP3 forms a head-to-head dimer in vivo and stabilizes its multimerization on adjacent microsatellites”.

Some of the results follow.

For the assay, the target named is T1, MBP-FoxP1dN (Mus musculus, UniProt P58462 326-579).
T1 sequence: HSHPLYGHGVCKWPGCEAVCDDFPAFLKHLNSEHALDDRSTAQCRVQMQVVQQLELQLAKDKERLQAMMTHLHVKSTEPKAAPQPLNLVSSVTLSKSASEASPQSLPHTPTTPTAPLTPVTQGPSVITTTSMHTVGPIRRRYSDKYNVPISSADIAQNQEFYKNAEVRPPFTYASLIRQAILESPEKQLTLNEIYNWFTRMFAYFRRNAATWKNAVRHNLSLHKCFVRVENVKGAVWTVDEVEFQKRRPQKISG
Nature of the assay: PD-seq (MBP pull-down with sequencing); 20 mM Tris-HCl pH 7.5, 100 mM NaCl, 1.5 mM MgCl2, 0.4 uM protein, 0.1 uM dsDNA library, 30 min, room temperature, amylose pull-down; high values mean tight binding. Particulars: protein: recombinant; tags: His6-MBP; chain copies: 2; dsDNA, one strand shown. The method, boiled down: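 Binding is reads-per-million enrichment of pull-down over input, with replicates pooled. It comes from 30 min room-temperature incubation in Tris pH 7.5 buffer with NaCl and MgCl2 of 0.4 µM His6-MBP-tagged, N-terminally truncated mouse FoxP3 or FoxP1 fragment from E. coli with 0.1 µM Klenow-filled degenerate double-stranded DNA library, followed by amylose resin capture, three washes and Illumina sequencing of the released DNA.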
“GATGATTGTTCTCCCAGCTGATGAATTGGGCTCTTCGAGTAAACAAATTTTCCTAATCTTTCTGTTCAAGCGCCATCTAC”: the binding signal was 0.836 RPM ratio (pull-down/input).

For “GATGATTGTTCTCCCAGCTGATGAATTTATAGTATCGAGTAAACAAATTTTCCTAATCTTTCTGTTCAAGCGCCATCTAC”, the binding signal was 1.24 RPM ratio (pull-down/input).

For the sequence “GATGATTGTTCTCCCAGCTGATGAATTGAGTTAGTCGAGTAAACAAATTTTCCTAATCTTTCTGTTCAAGCGCCATCTAC”, the binding signal is 0.899 RPM ratio (pull-down/input).

Regarding “GATGATTGTTCTCCCAGCTGATGAATTCTAATACTCGAGTAAACAAATTTTCCTAATCTTTCTGTTCAAGCGCCATCTAC”, the binding signal is 0.888 RPM ratio (pull-down/input).

Take “GATGATTGTTCTCCCAGCTGATGAATTTTTTGAGTCGAGTAAACAAATTTTCCTAATCTTTCTGTTCAAGCGCCATCTAC”: the binding signal was 0.866 RPM ratio (pull-down/input).

With “GATGATTGTTCTCCCAGCTGATGAATTCCCTCGCTCGAGTAAACAAATTTTCCTAATCTTTCTGTTCAAGCGCCATCTAC”, the binding signal was 0.751 RPM ratio (pull-down/input).

As to “GATGATTGTTCTCCCAGCTGATGAATTTTACAAGTCGAGTAAACAAATTTTCCTAATCTTTCTGTTCAAGCGCCATCTAC”, the binding signal is 0.831 RPM ratio (pull-down/input).

“GATGATTGTTCTCCCAGCTGATGAATTGTAATCTTCGAGTAAACAAATTTTCCTAATCTTTCTGTTCAAGCGCCATCTAC”: the binding signal was 1.06 RPM ratio (pull-down/input).

For “GATGATTGTTCTCCCAGCTGATGAATTGAGCTATTCGAGTAAACAAATTTTCCTAATCTTTCTGTTCAAGCGCCATCTAC”, the binding signal is 0.843 RPM ratio (pull-down/input).

Consider “GATGATTGTTCTCCCAGCTGATGAATTAATGATCTCGAGTAAACAAATTTTCCTAATCTTTCTGTTCAAGCGCCATCTAC”, for which the binding signal is 0.89 RPM ratio (pull-down/input).

For the sequence “GATGATTGTTCTCCCAGCTGATGAATTCATGCCCTCGAGTAAACAAATTTTCCTAATCTTTCTGTTCAAGCGCCATCTAC”, the binding signal was 0.832 RPM ratio (pull-down/input).

As for “GATGATTGTTCTCCCAGCTGATGAATTTGGACGATCGAGTAAACAAATTTTCCTAATCTTTCTGTTCAAGCGCCATCTAC”, the binding signal is 0.904 RPM ratio (pull-down/input).

“GATGATTGTTCTCCCAGCTGATGAATTGCGCTAATCGAGTAAACAAATTTTCCTAATCTTTCTGTTCAAGCGCCATCTAC”: the binding signal was 1.18 RPM ratio (pull-down/input).

Regarding “GATGATTGTTCTCCCAGCTGATGAATTGACGGCTTCGAGTAAACAAATTTTCCTAATCTTTCTGTTCAAGCGCCATCTAC”, the binding signal was 1.02 RPM ratio (pull-down/input).

Consider “GATGATTGTTCTCCCAGCTGATGAATTAGTCTCTTCGAGTAAACAAATTTTCCTAATCTTTCTGTTCAAGCGCCATCTAC”, for which the binding signal was 0.911 RPM ratio (pull-down/input).

For the sequence “GATGATTGTTCTCCCAGCTGATGAATTCGCAACTTCGAGTAAACAAATTTTCCTAATCTTTCTGTTCAAGCGCCATCTAC”, the binding signal was 1.01 RPM ratio (pull-down/input).

On to “GATGATTGTTCTCCCAGCTGATGAATTATTAATTTCGAGTAAACAAATTTTCCTAATCTTTCTGTTCAAGCGCCATCTAC”, for which the binding signal was 1.34 RPM ratio (pull-down/input).

As for “GATGATTGTTCTCCCAGCTGATGAATTCATTGCCTCGAGTAAACAAATTTTCCTAATCTTTCTGTTCAAGCGCCATCTAC”, the binding signal is 0.872 RPM ratio (pull-down/input).

For “GATGATTGTTCTCCCAGCTGATGAATTTACTATATCGAGTAAACAAATTTTCCTAATCTTTCTGTTCAAGCGCCATCTAC”, the binding signal was 1.45 RPM ratio (pull-down/input).

With “GATGATTGTTCTCCCAGCTGATGAATTCGGTCTTTCGAGTAAACAAATTTTCCTAATCTTTCTGTTCAAGCGCCATCTAC”, the binding signal is 0.801 RPM ratio (pull-down/input).

On to “GATGATTGTTCTCCCAGCTGATGAATTTCTCCTGTCGAGTAAACAAATTTTCCTAATCTTTCTGTTCAAGCGCCATCTAC”, for which the binding signal was 0.819 RPM ratio (pull-down/input).

In the case of “GATGATTGTTCTCCCAGCTGATGAATTCACTGATTCGAGTAAACAAATTTTCCTAATCTTTCTGTTCAAGCGCCATCTAC”, the binding signal was 0.905 RPM ratio (pull-down/input).

On to “GATGATTGTTCTCCCAGCTGATGAATTAAACGCATCGAGTAAACAAATTTTCCTAATCTTTCTGTTCAAGCGCCATCTAC”, for which the binding signal was 1.26 RPM ratio (pull-down/input).

In the case of “GATGATTGTTCTCCCAGCTGATGAATTGTGGGGCTCGAGTAAACAAATTTTCCTAATCTTTCTGTTCAAGCGCCATCTAC”, the binding signal was 0.838 RPM ratio (pull-down/input).

As to “GATGATTGTTCTCCCAGCTGATGAATTTTTCAATTCGAGTAAACAAATTTTCCTAATCTTTCTGTTCAAGCGCCATCTAC”, the binding signal was 0.938 RPM ratio (pull-down/input).

As to “GATGATTGTTCTCCCAGCTGATGAATTTGCTGATTCGAGTAAACAAATTTTCCTAATCTTTCTGTTCAAGCGCCATCTAC”, the binding signal was 1.08 RPM ratio (pull-down/input).

For the sequence “GATGATTGTTCTCCCAGCTGATGAATTCAACTTATCGAGTAAACAAATTTTCCTAATCTTTCTGTTCAAGCGCCATCTAC”, the binding signal was 0.899 RPM ratio (pull-down/input).

“GATGATTGTTCTCCCAGCTGATGAATTTGTACTATCGAGTAAACAAATTTTCCTAATCTTTCTGTTCAAGCGCCATCTAC”: the binding signal is 1.22 RPM ratio (pull-down/input).

For “GATGATTGTTCTCCCAGCTGATGAATTCCGATCCTCGAGTAAACAAATTTTCCTAATCTTTCTGTTCAAGCGCCATCTAC”, the binding signal is 0.737 RPM ratio (pull-down/input).

Take “GATGATTGTTCTCCCAGCTGATGAATTATTCCACTCGAGTAAACAAATTTTCCTAATCTTTCTGTTCAAGCGCCATCTAC”: the binding signal was 1.05 RPM ratio (pull-down/input).

Consider “GATGATTGTTCTCCCAGCTGATGAATTCCCGTAGTCGAGTAAACAAATTTTCCTAATCTTTCTGTTCAAGCGCCATCTAC”, for which the binding signal was 0.816 RPM ratio (pull-down/input).
